Entries after “also recorded” stand apart in the source; their conditions may differ.
B1: H2 ScFv antibody: human anti-c-Met ScFv comprising SEQ ID NO:31; tested as phage-displayed clone (protein)
scFv: [about 100 residues not shown]EGGKWYYGMDVWGRGTLVTVSSGGGGGSGGGGSGGGGSSSELTQDPAVSVALGQTVRITCQGDSLRSYYTNWFQQKPGQAPLLVVYAKNKRPSGIPDRFSGSGSGDTASLTITGAQAEDEADYYCNSRDSSGNYLFAAGTKLTVLG
modifications: phage-displayed; synthetic H2 ScFv sequence
B2: A12 ScFv antibody: human anti-c-Met ScFv comprising SEQ ID NO:25; tested as phage-displayed clone (protein)
scFv: [about 100 residues not shown]SSSSWYRSYYFDYWGQGTLVTVSSGGGGGSGGGGSGGGGSQSALTQDPAVSVALGQTVRITCRGDSLRNYYASWYQQKPGQAPVLVIYGKNNRPSGIPDRFSGSFSGNTASLTITGAQAEDEADYYCNSRDSSANQMFGGGTKVTVLG
modifications: phage-displayed; synthetic A12 ScFv sequence
B3: H2 cys-diabody: human anti-c-Met cys-diabody comprising SEQ ID NO:23; also tested Zr-89 or 64Cu radiolabeled (protein)
chain: [about 100 residues not shown]EGGKWYYGMDVWGRGTLVTVSSGGGGGSSSELTQDPAVSVALGQTVRITCQGDSLRSYYTNWFQQKPGQAPLLVVYAKNKRPSGIPDRFSGSGSGDTASLTITGAQAEDEADYYCNSRDSSGNYLFAAGTKLTVLGAAAEQKLISEEDLNGAAHHHHHHC
modifications: optionally Zr-89 or 64Cu radiolabel; H2 cys-diabody sequence
notes: also tested Zr-89 or 64Cu radiolabeled

Assays:
[1] = target: T1, cell surface MET (Homo sapiens, UniProt P08581); experiment: Phage flow cytometry for binding to c-MET expressing cells; conditions: phage antibodies; Hcc827 or Hcc827-GR6 cells; FITC anti-M13 detection
T1 construct: endogenous in cells; host or cells: Hcc827 or Hcc827-GR6
Protocol: For phage antibodies, flow cytometry was used to confirm their binding to c-MET expressing cells. Bacteria culture containing phage was concentrated 30 times into PBS according to published method (Antibody Engineering Methods and Protocols, Benny K. C. Lo). 2˜5×105 c-MET positive Hcc827 or Hcc827-GR6 cells (Engelman et. al, Science, 2007) were incubated with 100 ul concentrated phage and 30 ul 4% milk-PBS on ice for 1 hour. Cells were then washed using flow buffer (PBS, 1% FBS, 2 mM EDTA), and the binding phage antibodies were detected by FITC conjugated anti-M13 monoclonal antibody (Santa Cruz Biotechnology, Cat# sc-53005 Fitc).
93 clones were randomly picked after 3 rounds of panning. The phage-containing supernatant was used for phage ELISA. Top 64 clones with highest A405 signal were sequenced, among which 19 distinctive clones with different sequences were identified. These distinctive clones were then tested for binding to cell surface MET by phage flow experiments. 8 of these clones show good binding to cell surface MET and were selected for the subsequent purification and characterizations.

[2] = system: parental and resistant tumor; experiment: PET imaging with 64Cu radiolabeled maleimide-DOTA H2 cys-diabody; assay type: in vivo; conditions: maleimide-DOTA conjugated, initial experiments
Protocol: These diabodies were also tested on other resistant cells without MET amplification (H1975 and H1650), and they show no effects on those cells. The H2 cys-diabody was site specifically conjugated with maleimide-DOTA and radiolabeled with 64Cu for PET imaging.
These diabodies were also applied to other resistant cells without MET amplification (H1975 and H1650). The diabodies had no effect on such cells. (Data not shown). The H2 cys-diabody was site specifically conjugated with maleimide-DOTA and radiolabeled with ^64Cu for PET imaging.

[3] = system: Hcc827 parental tumors; experiment: Ex-vivo biodistribution after PET, Hcc827 parental tumors; assay type: in vivo, SCID mice; conditions: Zr-89 maleimide-DFO labeled, tail vein, ex vivo after final imaging time point (20 hours), n=4
Protocol: (§1) Hcc827 parental cells and the gefitinib resistant Hcc827-GR6 cells were obtained from Jeffrey A. Engelman's lab. The parental Hcc827 cells were maintained with RPMI 1640 media supplemented with 10% FBS (fetal bovine serum, Invitrogen), 1% sodium pyruvate (Invitrogen) and 1% penicillin-streptomycin (Invitrogen). The Hcc827-GR6 cells were maintained with RPMI1640 media supplemented with 10% FBS, 1% sodium pyruvate, 1% penicillin-streptomycin and 100 nM gefitinib (Santa Cruz biotechnology, Cat#: sc-202166). MKN45 cells (Japanese Collection of Research Bioresources cell bank) were maintained in RPMI 1640 media supplemented with 10% FBS. […]
(§2) Antibody fragments were first dialyzed into metal free PBS (0.5-2 mg/mL). […] The labeling efficiency and radio-chemical purity were determined by ITLC (instant thin-layer chromatography). […] The radioactivity of the combined and supernatant and cell pellet was measured by a Wizard 3′ 1480 Automatic Gamma Counter (Perkin-Elmer, Covina, Calif.). The immunoreactivity was calculated by dividing the radioactivity in the cell pellet with the total radioactivity of supernatant and cell pellet. […]
(§3) Tumor bearing mice were injected via tail vein with approximately 18-25 μg of Zr-89 labeled cys-diabody in PBS. […] Micro-PET images were reconstructed using a filtered backprojection algorithm, and analyzed with AMIDE software. […]

[4] = target: T2, human MET protein (Homo sapiens, UniProt P08581); experiment: Anti-MET ELISA, human MET-hIgG Fc captured by coated cys-diabodies; assay type: binding; conditions: coated cys-diabody captures human MET-hFc
T2 construct: purchased Sino Biological Inc
Protocol: (§4) Three rounds of selections on human MET protein were performed which were successfully reformatted and purified 3 cys-diabodies. C2, H2 and H5 cys-diabodies were tested for cross-reactivity to mouse MET protein. Different cys-diabodies were coated to 96-well plate (milk or anti-EpCAM cys-diabody was used as negative control). Either mouse or human MET protein was applied to the coated cys-diabodies. Then the MET-hFc proteins were detected by anti-human Fc antibody.
(§5) 1 μg of purified anti-MET cys-diabodies in […], PBS were used to coat each well at 4 degree overnight. Anti-EpCAM cys-diabody or 2% milk-PBS were used for negative controls. The overnight coated plate was then washed with PBS and blocked with 2% milk-PBS at 37 degree for 2 hours. […] The captured human or mouse MET-hIgG Fc were detected with alkaline phosphatase conjugated goat anti-human IgG.
(§6) C2, H2 and H5 cys-diabodies were used to coat 96-well ELISA plate to capture human or mouse MET-hIgG Fc fusion protein. The human IgG Fc on the fusion protein was detected with alkaline phosphatase conjugated goat anti-human IgG. […]
(§7) Three rounds of selections on human MET protein were performed, and three cys-diabodies were reformatted and purified (the C2, H2 and H5 cys-diabodies). […] Then the MET-hFc proteins were detected by anti-human Fc antibody.

[5] = system: Hcc827-GR6 cells; experiment: MTS cell growth assay, gefitinib resistant Hcc827-GR6 cells; assay type: cell-based; conditions: 3 days, with or without 1 μM gefitinib, MET amplified
Protocol: These diabodies also show therapeutic effects on resistant cells with MET amplification. […] The diabodies were also applied to the resistant cell line GR6 with or without 1 μM gefitinib.
Cell growth and inhibition were evaluated by MTS assay. The MTS assay was based on the ability of live cells to convert 3-(4,5-dimethylthiazol-2-yl)-5-(3-carboxymethoxyphenyl)-2-(4-sulfophenyl)-2H-tetrazolium (MTS) to formazan. The quantity of formazan product was measured by 500 nm absorbance, which is proportional to the number of living cells in culture. The assay was performed with the CellTiter96 AQueous Assay Kit from Promega (Cat# G5421), according to the recommended protocol. 2×10^4 cells were seeded in each well of the 96-well plates and treated with different combination of antibodies and drugs for 3 days before the MTS assay. Each combination of cell line and drug and antibody treatment was set up in at least 4 replicate wells. And the results were normalized to the cells treated with media only.
Different cell lines were treated with C2, H2 or H5 cys-diabodies at different concentrations with or without 1 micromolar of gefitinib for 3 days, and then the cell growth was evaluated with MTS assay. […] All three cys-diabodies show no effects on the parental Hcc827 cells without gefitinib.
These diabodies also show therapeutic effects on resistant cells with MET amplification. […]

[6] = target: T3, mouse MET protein (Mus musculus, UniProt P16056); experiment: Anti-MET ELISA, mouse MET-hIgG Fc captured by coated cys-diabodies (cross reactivity); assay type: binding; conditions: coated cys-diabody captures mouse MET-hFc
T3 construct: purchased Sino Biological Inc
Protocol: as §4, §5, §6, §7

[7] = system: Hcc827-GR6 tumors; experiment: Ex-vivo biodistribution after PET, Hcc827-GR6 tumors; assay type: in vivo, SCID mice; conditions: Zr-89 maleimide-DFO labeled, tail vein, ex vivo after final imaging time point (20 hours), n=4
Protocol: as §1, §2, §3

T3 sequence (P16056 with tags, fused parts or gaps limits assumed): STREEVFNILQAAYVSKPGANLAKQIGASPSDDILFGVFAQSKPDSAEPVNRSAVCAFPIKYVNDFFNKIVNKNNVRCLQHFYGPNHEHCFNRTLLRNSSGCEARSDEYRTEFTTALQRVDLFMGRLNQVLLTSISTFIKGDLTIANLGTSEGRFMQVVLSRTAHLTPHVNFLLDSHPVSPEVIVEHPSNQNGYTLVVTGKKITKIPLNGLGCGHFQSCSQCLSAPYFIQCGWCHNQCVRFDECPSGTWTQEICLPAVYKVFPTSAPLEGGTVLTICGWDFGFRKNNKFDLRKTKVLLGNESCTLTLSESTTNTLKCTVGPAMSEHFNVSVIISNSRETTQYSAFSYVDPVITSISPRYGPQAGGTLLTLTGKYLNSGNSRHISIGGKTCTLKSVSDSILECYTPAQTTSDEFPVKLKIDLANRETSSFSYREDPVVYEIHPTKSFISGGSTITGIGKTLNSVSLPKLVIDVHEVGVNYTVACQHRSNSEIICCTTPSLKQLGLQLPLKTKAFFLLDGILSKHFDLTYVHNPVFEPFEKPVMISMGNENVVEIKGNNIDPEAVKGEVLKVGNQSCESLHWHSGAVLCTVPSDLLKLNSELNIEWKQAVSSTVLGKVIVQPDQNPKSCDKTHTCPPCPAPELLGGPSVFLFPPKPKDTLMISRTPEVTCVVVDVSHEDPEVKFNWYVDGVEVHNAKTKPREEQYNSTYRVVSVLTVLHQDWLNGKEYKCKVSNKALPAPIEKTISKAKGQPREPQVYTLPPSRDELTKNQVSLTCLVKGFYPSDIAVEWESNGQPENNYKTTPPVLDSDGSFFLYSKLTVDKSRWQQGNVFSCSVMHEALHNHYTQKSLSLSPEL
T3 sequence (P16056 25-306 limits assumed): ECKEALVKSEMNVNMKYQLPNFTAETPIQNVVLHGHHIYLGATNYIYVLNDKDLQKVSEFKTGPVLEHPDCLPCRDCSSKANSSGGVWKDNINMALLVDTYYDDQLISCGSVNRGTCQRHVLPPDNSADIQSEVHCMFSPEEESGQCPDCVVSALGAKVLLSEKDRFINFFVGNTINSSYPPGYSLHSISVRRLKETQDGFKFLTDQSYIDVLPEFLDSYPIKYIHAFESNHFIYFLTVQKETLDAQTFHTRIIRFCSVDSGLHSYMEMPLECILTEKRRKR
T1 sequence (P08581 25-1390): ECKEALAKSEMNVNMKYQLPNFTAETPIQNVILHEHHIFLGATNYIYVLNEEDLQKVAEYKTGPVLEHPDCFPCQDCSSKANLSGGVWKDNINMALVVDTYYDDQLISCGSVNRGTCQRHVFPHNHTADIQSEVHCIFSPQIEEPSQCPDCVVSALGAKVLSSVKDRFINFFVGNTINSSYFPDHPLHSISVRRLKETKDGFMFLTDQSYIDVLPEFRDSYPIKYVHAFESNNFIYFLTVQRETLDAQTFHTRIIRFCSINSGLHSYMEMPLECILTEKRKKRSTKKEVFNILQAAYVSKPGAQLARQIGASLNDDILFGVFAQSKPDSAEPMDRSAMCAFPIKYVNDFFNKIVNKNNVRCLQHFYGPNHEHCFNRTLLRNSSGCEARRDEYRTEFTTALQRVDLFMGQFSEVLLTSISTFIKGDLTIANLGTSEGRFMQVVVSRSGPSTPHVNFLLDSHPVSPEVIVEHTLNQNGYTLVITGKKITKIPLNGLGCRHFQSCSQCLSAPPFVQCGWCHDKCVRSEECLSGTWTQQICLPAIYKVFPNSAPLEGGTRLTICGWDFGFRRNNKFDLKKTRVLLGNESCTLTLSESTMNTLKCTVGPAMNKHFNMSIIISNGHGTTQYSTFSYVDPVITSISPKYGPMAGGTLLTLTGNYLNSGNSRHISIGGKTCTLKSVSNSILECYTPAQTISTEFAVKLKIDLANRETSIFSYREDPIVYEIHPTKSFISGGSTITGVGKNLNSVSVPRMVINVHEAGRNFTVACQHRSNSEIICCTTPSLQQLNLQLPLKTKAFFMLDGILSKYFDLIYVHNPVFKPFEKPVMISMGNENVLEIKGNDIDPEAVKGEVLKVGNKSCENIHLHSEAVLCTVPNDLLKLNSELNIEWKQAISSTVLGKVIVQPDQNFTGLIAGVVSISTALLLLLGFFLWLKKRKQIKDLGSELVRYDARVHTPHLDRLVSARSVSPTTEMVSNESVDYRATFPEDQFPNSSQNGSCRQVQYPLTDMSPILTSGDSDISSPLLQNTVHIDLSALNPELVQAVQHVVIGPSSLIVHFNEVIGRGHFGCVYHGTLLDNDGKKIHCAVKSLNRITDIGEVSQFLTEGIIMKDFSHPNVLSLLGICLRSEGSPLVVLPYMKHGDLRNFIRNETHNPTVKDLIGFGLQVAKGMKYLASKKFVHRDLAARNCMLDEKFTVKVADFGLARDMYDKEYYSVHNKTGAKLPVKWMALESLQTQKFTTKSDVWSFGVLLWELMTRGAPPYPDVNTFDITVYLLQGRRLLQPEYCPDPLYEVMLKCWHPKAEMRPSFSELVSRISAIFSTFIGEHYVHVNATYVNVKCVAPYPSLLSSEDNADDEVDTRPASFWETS
T2 sequence (P08581 with tags, fused parts or gaps limits assumed): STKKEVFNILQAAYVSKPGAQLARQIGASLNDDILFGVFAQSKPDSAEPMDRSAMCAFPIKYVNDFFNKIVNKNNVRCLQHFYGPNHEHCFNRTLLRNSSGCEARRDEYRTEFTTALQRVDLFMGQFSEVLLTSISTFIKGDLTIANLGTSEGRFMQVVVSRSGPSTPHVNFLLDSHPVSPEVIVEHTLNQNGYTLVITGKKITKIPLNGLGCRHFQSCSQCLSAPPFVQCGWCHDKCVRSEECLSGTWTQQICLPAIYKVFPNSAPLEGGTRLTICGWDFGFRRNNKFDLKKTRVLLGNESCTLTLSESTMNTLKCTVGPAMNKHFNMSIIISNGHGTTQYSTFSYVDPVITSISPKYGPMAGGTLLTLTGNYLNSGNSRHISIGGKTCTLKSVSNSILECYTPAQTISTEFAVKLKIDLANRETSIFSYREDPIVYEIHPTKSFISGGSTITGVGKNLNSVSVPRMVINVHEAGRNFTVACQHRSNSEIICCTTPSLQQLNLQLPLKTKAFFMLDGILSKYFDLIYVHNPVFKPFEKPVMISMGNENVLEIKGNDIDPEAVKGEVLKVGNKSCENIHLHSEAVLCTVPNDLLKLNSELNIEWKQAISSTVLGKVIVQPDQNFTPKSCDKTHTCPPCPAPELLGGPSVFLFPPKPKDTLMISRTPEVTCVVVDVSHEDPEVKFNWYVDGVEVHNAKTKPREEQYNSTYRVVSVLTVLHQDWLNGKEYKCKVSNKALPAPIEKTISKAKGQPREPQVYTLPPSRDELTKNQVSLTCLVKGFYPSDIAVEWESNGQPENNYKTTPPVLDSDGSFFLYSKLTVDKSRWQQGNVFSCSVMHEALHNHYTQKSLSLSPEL
T2 sequence (P08581 25-307 limits assumed): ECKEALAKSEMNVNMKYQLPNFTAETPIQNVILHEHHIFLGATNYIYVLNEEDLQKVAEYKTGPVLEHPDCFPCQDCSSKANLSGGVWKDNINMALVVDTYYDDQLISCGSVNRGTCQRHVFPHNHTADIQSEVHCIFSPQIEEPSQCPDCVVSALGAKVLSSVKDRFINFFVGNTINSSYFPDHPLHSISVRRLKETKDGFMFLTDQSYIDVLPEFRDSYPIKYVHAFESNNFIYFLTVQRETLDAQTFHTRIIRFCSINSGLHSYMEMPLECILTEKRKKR

Molecule | binding to cell surface MET [1] | tumor targeting in PET imaging [2] | tumor uptake level [3] [% ID/gram] | binding to human MET protein [4] | inhibition of growth of resistant Hcc827-GR6 cells [5] | inhibition of growth of resistant Hcc827-GR6 cells ([5]; listed as H2 diabody) | cross reactivity to mouse MET protein [6] | tumor uptake level [7] [% ID/gram]
B1 | can bind to cell surface MET |  |  |  |  |  |  | 
B2 | can bind to cell surface MET |  |  |  |  |  |  | 
B3 |  | targeting to both parental and resistant tumor | 1.1±0.1 | can bind to both human and mouse MET protein | inhibition effect | best inhibition effect; also recorded: greatest inhibition effect | cross react with mouse MET protein; also recorded: can bind to both human and mouse MET protein | 1.8±0.2
